About 610 (0.55%) of roughly 110,000 compounds were called active. Inconclusive results, whose numbers are uncertain, are shown with a selection of clear calls. Calls come from the whole dose curve; as a rule, active = well fitted inhibition curve with a large enough effect; inconclusive = small, poorly fitted or top-dose-only effect; inactive = no such curve, though single readings can be large or run the other way. Potencies of inconclusive entries are doubtful fits and often do not repeat.
Each compound was assayed against Polyunsaturated fatty acid lipoxygenase ALOX15B (Homo sapiens) (UniProt O15296) (assay: qHTS Assay for Inhibitors of 15-hLO-2 (15-human lipoxygenase 2)). Conditions: purified 15hLO-2, xylenol orange hydroperoxide absorbance; activity change, negative = inhibition: at 57.1 µM (top of the series) unless noted.
Chain of UniProt O15296 (O15296 whole entry, looked up): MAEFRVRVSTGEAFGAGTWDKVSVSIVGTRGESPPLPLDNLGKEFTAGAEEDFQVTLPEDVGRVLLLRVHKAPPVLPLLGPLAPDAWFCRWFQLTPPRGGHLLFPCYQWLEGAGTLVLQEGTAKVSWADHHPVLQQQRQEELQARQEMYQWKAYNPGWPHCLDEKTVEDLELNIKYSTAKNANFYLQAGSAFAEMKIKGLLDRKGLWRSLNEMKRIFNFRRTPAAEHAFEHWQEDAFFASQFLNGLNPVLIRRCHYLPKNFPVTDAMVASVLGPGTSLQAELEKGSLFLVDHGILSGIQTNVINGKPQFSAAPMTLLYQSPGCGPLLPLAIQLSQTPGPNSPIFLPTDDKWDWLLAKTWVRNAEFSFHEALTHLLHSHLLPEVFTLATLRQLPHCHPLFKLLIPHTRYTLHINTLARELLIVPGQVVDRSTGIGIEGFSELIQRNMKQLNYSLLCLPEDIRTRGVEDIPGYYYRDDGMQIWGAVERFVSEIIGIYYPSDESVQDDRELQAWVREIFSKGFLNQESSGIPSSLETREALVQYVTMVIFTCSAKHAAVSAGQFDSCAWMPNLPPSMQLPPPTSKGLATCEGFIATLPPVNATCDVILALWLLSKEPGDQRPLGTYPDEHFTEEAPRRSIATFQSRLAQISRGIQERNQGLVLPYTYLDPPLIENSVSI
Outline: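 Purified human 15hLO-2 (50 nM) preincubated 15 min with compound, then 45 uM arachidonic acid for 90 min at RT in 25 mM Hepes pH 7.5, 0.01% Triton X-100. Hydroperoxide detected by Fe-xylenol orange; 573/405 nm absorbance ratio.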
`COc1ccc(CNC(=O)CCCCCn2c(SCC#N)nc3cc4c(cc3c2=O)OCO4)cc1` was tested, and the Potency was inconclusive: 31.6 µM [inhibitor, single point].
For `CC1=Nc2cccc3cccc(c23)N1`, the Potency was inconclusive: 3.16 µM [inhibitor, partial curve].
`O=C(Nc1ccc([N+](=O)[O-])cc1)C1C(c2ccccc2)=C1c1ccccc1` was tested, and the Potency was inconclusive: 25.1 µM [inhibitor, single point].
For `COC(=O)c1ccc(-n2c(C)ccc2-c2ccccc2)cc1`, the Potency was inconclusive: 20 µM [inhibitor, single point].
For `CCOc1cc(NC(=O)c2ccco2)c(OCC)cc1NC(=O)COc1ccccc1`, the Potency was inconclusive: 10 µM [inhibitor, partial curve].
For `Cc1cc(=O)oc2c(CN3CCN(C)CC3)c(O)c(Cl)cc12`, the activity change, negative = inhibition was inactive: 3.59% [at 2.29 µM].
With `COc1ccccc1-n1c(=S)sc2c(=O)n(Cc3ccco3)c(SC)nc21` the Potency was inconclusive: 20 µM [inhibitor, single point].
For `O=C(CSc1nnc(CNC(=O)c2cccs2)o1)NCc1ccc(F)cc1`, the Potency was “inactive”.
For `O=C1CCCC2=C1C(c1ccco1)Nc1ccc3ccccc3c12` (configuration not stated), the Potency was inconclusive: 25.1 µM [inhibitor, single point].
`C/C=C(/C(=C/C)c1ccc(O)cc1)c1ccc(O)cc1` was tested, and the Potency was active: 15.8 µM.
For `CCC(C)C(NC(=O)c1ccccc1NC(=O)c1ccc(OC)cc1)C(=O)NCc1ccco1` (configuration not stated), the Potency was inconclusive: 25.1 µM [inhibitor, partial curve].
In the case of `CCCCc1cc(=O)oc2cc(C)cc(O)c12`, the Potency is reported as inconclusive: 10 µM [inhibitor, partial curve].
In the case of `CSc1nc(NCCOCCO)c2sc3nc(-c4ccco4)c4c(c3c2n1)CCC4`, the Potency is reported as inconclusive: 15.8 µM [inhibitor, partial curve].
For `CC(=O)NCCNc1nc(-c2cccc(C#N)c2)nc2ccccc12`, the Potency was “inactive”.
`Cc1sc2nc(CSc3nnc(Cc4cccs4)n3C3CCCCC3)[nH]c(=O)c2c1C` was tested, and the Potency was inconclusive: 15.8 µM [inhibitor, partial curve].
For `C=CCSC1=N/C(=C\c2ccc(C)o2)C(=O)S1`, the Potency was inconclusive: 20 µM [inhibitor, partial curve].
`Cc1ccc(C(=O)C2CCN(CC(=O)Nc3ccc4c(c3)OCCO4)CC2)cc1` was tested, and the Potency was “inactive”.
With `COc1ccc(NC(=S)NC(NC(=O)/C=C/c2ccccc2)C(Cl)(Cl)Cl)cc1` (configuration not stated) the Potency was inconclusive: 5.01 µM [inhibitor, full curve].
For `C/C(=N\Nc1nnc(-c2ccccc2)c(-c2ccccc2)n1)c1cccc([N+](=O)[O-])c1`, the Potency was inconclusive: 7.94 µM [inhibitor, partial curve].
In the case of `O=C(CCN1C(=O)C2C3C=CC(C3)C2C1=O)Nc1c(F)cccc1F` (configuration not stated), the Potency is reported as inconclusive: 0.199 µM [inhibitor, full curve].
In the case of `CSc1nncc(/C(C)=N\Nc2ccccc2)n1`, the Potency is reported as inconclusive: 12.6 µM [inhibitor, partial curve].
`COC(=O)C1=C2SC(C)C(=O)N2C(N)=C(C#N)C1c1cc(OC)c(OC)c(OC)c1` (configuration not stated) was tested, and the Potency was inconclusive: 39.8 µM [inhibitor, single point].
With `N#Cc1cccc(-c2cc(NCc3ccccc3)ncn2)c1` the Potency was “inactive”.
In the case of `NC(=O)C1CCN(CCC(=O)Nc2ccc(Br)cc2)CC1`, the Potency is reported as inconclusive: 20 µM [inhibitor, partial curve].
For `COc1cc2c(cc1OC)C1=NC(=O)CN1C(SCc1ccccc1)=N2`, the Potency was inconclusive: 25.1 µM [inhibitor, single point].
`NS(=O)(=O)c1ccc(N=Nc2cc3ccccc3c(C(=O)O)c2O)cc1` was tested, and the activity change, negative = inhibition was inactive: -9.96% [at 11.4 µM].
`Cc1noc(C)c1-c1ccc2ncnc(NC3CCNCC3)c2c1` was tested, and the Potency was “inactive”.
`COc1ccc(CNC(=O)COC(=O)c2cc(-c3ccco3)nc3ccccc23)cc1` was tested, and the Potency was inconclusive: 7.94 µM [inhibitor, partial curve].
With `Cn1c(-c2cccc(OCc3ccccc3)c2)nc2c1c(=O)[nH]c(=O)n2Cc1ccccc1` the Potency was inconclusive: 10 µM [inhibitor, partial curve].
`COc1cccc(C2/C(=C(\O)c3ccc(OC)c(OC)c3)C(=O)C(=O)N2c2cc(C)on2)c1` (configuration not stated) was tested, and the Potency was “inactive”.
With `COc1cccc(NS(=O)(=O)Cc2ccccc2)c1` the Potency was inconclusive: 10 µM [inhibitor, partial curve].
In the case of `Cc1ccccc1C(=O)/C=C1\NC(=O)CS1`, the Potency is reported as “inactive”.
For `COC(=O)C(C(C)=O)C1=C/C(=N\S(=O)(=O)c2ccc(C)cc2)c2ccccc2C1=O` (configuration not stated), the Potency was inconclusive: 12.6 µM [inhibitor, partial curve].
`Cc1ccc2c(c1)c1c(n2C)C(C(N)=O)CCC1` (configuration not stated) was tested, and the Potency was “inactive”.
In the case of `CC(=O)N1CCC2(CC1)CN(C(c1ccccc1)c1ccccc1)C2`, the Potency is reported as “inactive”.
`C[C@@]12CC[C@@H]3[C@H](CCC4=CC(=O)CC[C@]43C)[C@@H]1CC[C@@H]2C(=O)Cn1cnc2c(=S)nc[nH]c21` was tested, and the Potency was inconclusive: 3.16 µM [inhibitor, partial curve].
In the case of `CCSc1nnc(NC(=O)CSc2nnc(Cc3cccn3C)n2CCc2ccccc2)s1`, the Potency is reported as inconclusive: 15.8 µM [inhibitor, single point].
With `COc1ccc(Cl)cc1NC(=S)NCCc1c[nH]c2ccccc12` the Potency was inconclusive: 25.1 µM [inhibitor, single point].
With `COc1ccc2c(c1)C1C=CCC1C(c1cc3c(cc1Br)OCO3)N2` (configuration not stated) the Potency was inconclusive: 12.6 µM [inhibitor, partial curve].
With `O=C1O/C(=C\Br)CC[C@@H]1c1cccc2ccccc12` the Potency was inconclusive: 3.16 µM [inhibitor, full curve, poor fit].
In the case of `CN1CCc2cc(O)c(O)cc2[C@H](c2ccccc2)C1`, the Potency is reported as inconclusive: 31.6 µM [inhibitor, single point].
For `Cc1onc(-c2ccccc2)c1C(=O)Nc1nnc(COc2ccc(Cl)cc2)s1`, the activity change, negative = inhibition was inactive: 2.4% [at 2.29 µM].
For `COc1cc(/C=N/N(C)c2ccccc2)cc(Cl)c1O`, the Potency was active: 10 µM.
With `Cc1cc(/C=C2\SC(=S)N(Cc3ccco3)C2=O)c(C)n1-c1cccnc1` the Potency was inconclusive: 15.8 µM [inhibitor, partial curve].
`O=C(CC1CCCCC1)NCC1CCCO1` (configuration not stated) was tested, and the Potency was “inactive”.
In the case of `CCN(CC)c1ccc(N=Cc2ccc(N(CC)CC)cc2O)cc1`, the Potency is reported as inconclusive: 20 µM [inhibitor, partial curve, poor fit].
For `Cc1cc(C)n(-c2nnc(C)n2/N=C/c2ccco2)n1`, the Potency was “inactive”.
For `COc1ccc(N2C(=O)C(Cl)=C(Nc3ccccc3O)C2=O)cc1`, the Potency was inconclusive: 15.8 µM [inhibitor, partial curve].
For `CCCNC(=O)c1ccc(N(Cc2ccccc2)S(C)(=O)=O)cc1`, the Potency was “inactive”.
`COCCn1nnnc1C(c1ccc(OC)cc1)N1CCC(C)CC1` (configuration not stated) was tested, and the Potency was “inactive”.
`COc1cnc(SCc2c(Cl)cccc2Cl)nc1Cl` was tested, and the Potency was “inactive”.
In the case of `C/C(N)=C(/C#N)C(=O)CSc1nnc(Nc2cccc(C)c2C)s1`, the Potency is reported as inconclusive: 15.8 µM [inhibitor, partial curve].
In the case of `CCN[C@@H]1CN(CCCOC)S(=O)(=O)c2sc(S(N)(=O)=O)cc21`, the Potency is reported as “inactive”.
With `CC1=CC(C)(C)N2C(=O)C3(C(C#N)=C(N)Oc4cc(O)ccc43)c3c(C)c(C)cc1c32` (configuration not stated) the Potency was inconclusive: 25.1 µM [inhibitor, single point].
`NS(=O)(=O)c1ccc(Nc2nc(-c3ccc(O)cc3O)cs2)cc1` was tested, and the Potency was inconclusive: 31.6 µM [inhibitor, single point].
For `C/C(=N\NS(=O)(=O)c1cccc([N+](=O)[O-])c1)c1cc2ccccc2o1`, the Potency was inconclusive: 20 µM [inhibitor, partial curve].
`COc1ccc(C(=O)c2ccc(N(C)C)cc2)c(OC)c1` was tested, and the Potency was “inactive”.
`CCOc1ccc2nc(NC(=O)C(NS(=O)(=O)c3cccs3)C(C)C)sc2c1` (configuration not stated) was tested, and the Potency was “inactive”.
In the case of `CCn1c(N)c(C(=O)Nc2ccccc2C(=O)OC)sc1=S`, the Potency is reported as inconclusive: 15.8 µM [inhibitor, partial curve].
`Cn1ncc2c(Nc3ccccc3Br)ncnc21` was tested, and the Potency was “inactive”.
With `Cc1cnc(CNc2nc(-c3ccc(N(C)C)cc3)nc3ccccc23)cn1` the Potency was “inactive”.
In the case of `CCN1CCN(C(=O)NC(C(=O)NC2C(=O)N3C(C(=O)O)=C(CSc4nnnn4C)CSC23)c2ccc(O)cc2)C(=O)C1=O` (configuration not stated), the Potency is reported as “inactive”.
With `CCN(CC)CCNC(=O)CCn1c(=S)[nH]c2cc3c(cc2c1=O)OCO3` the Potency was “inactive”.
In the case of `CC(C)C1=CC(=NS(=O)(=O)c2cccc([N+](=O)[O-])c2)C=C(C(C)C)C1=O`, the Potency is reported as inconclusive: 10 µM [inhibitor, partial curve].
With `Nc1nc(CN2CCN(c3ccccc3F)CC2)nc(Nc2ccccc2)n1` the Potency was “inactive”.
With `O=C1CC(Sc2nnc(-c3ccccc3O)o2)C(=O)N1c1ccccc1` (configuration not stated) the Potency was “inactive”.
With `[O-]/[N+](=C/c1ccc(F)cc1)c1ccccc1` the Potency was inconclusive: 1 µM [inhibitor, partial curve].
With `O=C(OCn1ncc(Br)c(Br)c1=O)c1c(F)cccc1F` the Potency was “inactive”.
In the case of `COc1ccc(C(C[N+](=O)[O-])c2c(-c3ccccc3)cc3ccccn23)cc1` (configuration not stated), the Potency is reported as inconclusive: 12.6 µM [inhibitor, partial curve].
With `CS(=O)(=O)N1CCC[C@@]2(CCN(Cc3nccs3)C2)C1` the Potency was “inactive”.
With `CCCOc1ccccc1-n1sc2c(c1=S)-c1cc(OC)cc3c1N(C(=O)C3=O)C2(C)C` the Potency was inconclusive: 3.98 µM [inhibitor, full curve].
With `CCCC(C)c1nnc(NC(=O)CS(=O)(=O)Cc2ccccc2)s1` (configuration not stated) the Potency was inconclusive: 2 µM [inhibitor, full curve].
% is set by controls: 0 for no effect and ±100 for the full control effect; potency is the fitted concentration of half-maximal effect; tags give direction and shape of the fitted curve.
Note: nearly all actives have a fitted effect of over 60% in size.
